These results are taken from PubChem BioAssay AID485344 (National Center for Advancing Translational Sciences (NCATS), 2010).

The term inhibition denotes the change of the read-out against control, counted positive when it falls.

Structures are written as SMILES. Out of some 340,000 compounds screened, about 6,900 (2%) were called active. Cut-off read from the data, not from the text of the source: active = inhibition above about 30%; inactive = below that, where a call was filed. The entries are a selection whose mix differs from that of the whole data set. Entries without a call were filed so in the source.

The target in the assay is D(2) dopamine receptor (Homo sapiens) (UniProt P14416). The assay can be described thus: HTS Assay for Allosteric Antagonists of the Human D2 Dopamine Receptor: Primary Screen for Antagonists. Note: 0% is about no effect. The note with it: HEK293 TREx D2 cells, calcium flux, dopamine EC80; at 10 µM; stronger effect = higher value. In outline: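 Measurement of antagonist activity uses fluorescent calcium dye in inducible HEK293 T-REx D2 cells: 10 s baseline, compound addition with 180 s read, EC80 dopamine addition with a further 180 s read.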
Chain of UniProt P14416 (P14416 whole entry, looked up): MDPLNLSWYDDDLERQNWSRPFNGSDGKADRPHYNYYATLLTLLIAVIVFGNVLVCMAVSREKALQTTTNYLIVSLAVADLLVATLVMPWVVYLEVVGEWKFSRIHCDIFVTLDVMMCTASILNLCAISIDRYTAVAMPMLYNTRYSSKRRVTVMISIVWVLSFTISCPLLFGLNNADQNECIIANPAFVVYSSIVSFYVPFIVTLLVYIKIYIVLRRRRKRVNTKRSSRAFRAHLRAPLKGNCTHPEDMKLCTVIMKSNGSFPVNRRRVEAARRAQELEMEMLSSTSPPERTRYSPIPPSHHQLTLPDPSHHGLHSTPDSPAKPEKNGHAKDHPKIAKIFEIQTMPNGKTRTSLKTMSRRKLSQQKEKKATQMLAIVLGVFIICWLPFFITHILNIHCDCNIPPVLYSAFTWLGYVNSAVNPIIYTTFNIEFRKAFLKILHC
A general note: Calcium assays in cells follow changes in intracellular calcium, usually with a dye or a luminescent sensor.
With `COc1cc(NC(=O)N2CCc3c(sc4c3CCCC4)C2c2ccccc2)cc(OC)c1OC` (stereo unspecified), the inhibition came out at 5.66%.

As to `CCOc1ccc(CNC(=O)CSc2nnc(C)c3c(C)n(-c4ccc(Cl)cc4)nc23)cc1`, the inhibition is -0.993%.

For `O=C(CN1C(=O)COc2ccc(S(=O)(=O)NC3CCCC3)cc21)NCc1ccc(Cl)cc1`, the inhibition was -3.84%.

With `CCN(CC)CCSc1c(C(C)C)cnc2c1c(=O)n(C)c(=O)n2C`, the inhibition was 18.3%.

For `COc1ccc(CNC(=O)CN2C(=O)CC(c3ccc(C)c(C)c3)=Nc3ccccc32)cc1`, the inhibition amounted to 8.3%.

Take `Cc1cc(C)c(-c2n[nH]c3c2C(c2ccccc2F)N(Cc2ccco2)C3=O)c(O)c1` (stereo unspecified): the inhibition is 18.4%.

With `COc1ccc(-c2cc(C(F)(F)F)nc(SCCC(=O)Nc3ccc(OC)c(OC)c3)n2)cc1`, the inhibition is 14.1%.

On to `CCCCc1nnc(SCc2cc(=O)c3cc(F)ccc3[nH]2)n1C`, for which the inhibition is -20.1%.

For the compound `Cc1ccc(NC(=O)c2sc3nc(-c4cccs4)ccc3c2N)cc1F`, the inhibition is 5.16%.

In the case of `CC(C)(C)NC(=O)C1CCN(c2nc3ccccc3nc2C(F)(F)F)CC1`, the inhibition was -0.47%.

Turning to `O=C(NCC(c1cccs1)N1CCOCC1)c1ccccc1NS(=O)(=O)c1cc([N+](=O)[O-])ccc1Cl` (stereo unspecified), the inhibition is active: 33%.

As to `Cc1ccc(-n2c(=O)c3sc4ccccc4c3n(C)c2=O)cc1F`, the inhibition amounted to 11.4%.

`Cc1ccc(C)c(NC(=O)c2ccc3c(c2)CCCN3S(C)(=O)=O)c1`: the inhibition was -8.71%.

On to `COc1cccc(NC(=O)c2oc3ccccc3c2NC(=O)c2ccc(F)c(F)c2)c1`, for which the inhibition amounted to 1.06%.

Regarding `CCCCOC(=O)c1ccc(OC(=O)c2cccnc2)cc1`, the inhibition is active: 30.5%.

Turning to `Cc1oc2cc3oc(=O)c(CC(=O)NCc4ccccc4)c(C)c3cc2c1C`, the inhibition stood at 9.63%.

With `Cc1ccc(C(=O)N2CCCCC2)cc1NC(=O)c1nsc2ccccc12`, the inhibition is -0.401%.

Regarding `COc1ccc(S(=O)(=O)N2CCC(N3CCN(Cc4ccc(F)cc4)C(=O)C3=O)CC2)cc1`, the inhibition turned out to be 12.9%.

For `CCc1ccc(C(=O)c2cn(CC(=O)Nc3cc(OC)ccc3OC)c3nc(C)ccc3c2=O)cc1`, the inhibition was -0.701%.

On to `O=C(Nc1ccccc1C(F)(F)F)C1CCN(S(=O)(=O)Cc2ccccc2)CC1`, for which the inhibition was 13.9%.

Take `O=C(CSc1nc2nccnc2c(=O)n1CCc1c[nH]c2ccccc12)Nc1ccccc1`: the inhibition was -19.1%.

Consider `O=C(NC1CC(=O)N(c2ccccc2)C1)C(c1ccccc1)c1ccccc1` (stereo unspecified), for which the inhibition amounted to 14.9%.

In the case of `COc1ccc(NS(=O)(=O)c2ccc(N/N=C(\C)c3ccncc3)c([N+](=O)[O-])c2)cc1`, the inhibition was active: 79.3%.

Regarding `COC(=O)c1c(NC(=O)/C(C#N)=C/c2ccc(OC)cc2)sc2c1CCC2`, the inhibition is -3.14%.

Regarding `COc1ccc(CN2C3CCCC2CC(NC(=O)c2cccc(F)c2)C3)cc1` (stereo unspecified), the inhibition was active: 80.1%.

Turning to `Cc1cc(C)cc(NC(=O)N2CCC(CN3CCCCCC3)CC2)c1`, the inhibition was found to be 7.22%.

Take `CCc1cc2c(=O)oc(-c3ccc(Br)cc3)nc2s1`: the inhibition is active: 32.8%.

As to `CCC(=O)N1c2ccc(S(=O)(=O)CCC(=O)N3CCN(c4cc(C)ccc4C)CC3)cc2CC1C` (stereo unspecified), the inhibition was found to be 26.6%.

Turning to `O=C1CN=C(Nc2ccccc2Cl)N1c1ccccc1`, the inhibition was active: 36.4%.

Turning to `CCCSc1ncc(Cl)c(C(=O)Nc2c(C(=O)c3ccc(C)cc3)oc3ccccc23)n1`, the inhibition worked out at 16.4%.

Take `CCOc1ccc2nc(NC(=O)c3nc(SCc4ccccc4C)ncc3Cl)sc2c1`: the inhibition is -4.1%.

In the case of `Cn1c(=O)c2c(nc(SCC(=O)Nc3ccc(F)cc3)n2Cc2ccccc2F)n(C)c1=O`, the inhibition is 13%.

Regarding `COc1c(Cl)cc(C(=O)N(Cc2ccccc2F)C2CCS(=O)(=O)C2)cc1Cl` (stereo unspecified), the inhibition was 5.42%.

With `CCC(Sc1nc(-c2ccc(F)cc2)nc2c1Cc1c(CO)cnc(C)c1O2)C(=O)Nc1ccc(F)cc1` (stereo unspecified), the inhibition came out at 3.47%.

As to `CC(C)(C)OC(=O)N1CCc2nc(N3CCN(c4ncccn4)CC3)ncc2C1`, the inhibition turned out to be 5.53%.

`CCS(=O)(=O)N1CCc2cc(C(=O)N3CCN(c4ccccc4OC)CC3)ccc21`: the inhibition was -4.65%.

For `COc1ccc(-n2c(SCC(N)=O)nc3c(oc4ccccc43)c2=O)cc1`, the inhibition turned out to be 10.8%.

As to `Cc1ccc(-c2onc(C)c2C)cc1S(=O)(=O)N1CCOc2ccc(Cl)cc21`, the inhibition was found to be 9.55%.

Turning to `CC(C)CN1CCc2nc(Nc3ccc(F)cc3F)ncc2C1`, the inhibition is -13.9%.

Regarding `O=C(Cc1cccs1)Nc1c(C(=O)Nc2ccc(F)cc2)oc2ccccc12`, the inhibition was -7.1%.

Turning to `CC(=O)N1CCc2c(sc3c2c(=O)n(Cc2ccccc2)c(=O)n3Cc2ccccc2F)C1`, the inhibition is -14.7%.

`O=C(CN1CCN(Cc2ccccc2Cl)C1=O)NC1CCCCCCC1`: the inhibition is active: 31%.

As to `COc1cc(/C=C(\C#N)c2nc3ccccc3[nH]2)ccc1OCc1ccccc1F`, the inhibition stood at 8.34%.

Take `COc1ccc(S(=O)(=O)NCCSc2nnnn2-c2ccccc2)cc1OC`: the inhibition was -2.33%.

Turning to `CCN(Cc1ccccc1)C(=O)c1cc(-c2ccccc2)n[nH]1`, the inhibition stood at 10.9%.

As for `Cc1ccc(Cl)cc1N1CCN(C(=O)CN2C(=O)COc3ccc(S(=O)(=O)N4CCCCCC4)cc32)CC1`, the inhibition was -3.62%.

Regarding `CC(C)CCNC(=O)c1ccc2c(c1)NC(=O)C(C(C)C)N2` (stereo unspecified), the inhibition was -21.7%.

As for `Cc1c(C)n(Cc2ccccc2)c2ccc(C(=O)N3CCN(c4ccc(F)cc4)CC3)cc12`, the inhibition is -2.61%.

With `Cc1ccc(NC(=O)N2CCCC2C(=O)NCC2CCCCC2)cc1` (stereo unspecified), the inhibition is active: 35.3%.

Consider `CCN(CC)S(=O)(=O)c1ccc2c(c1)N(CC(=O)N1CCN(c3ccc(OC)cc3)CC1)C(=O)CO2`, for which the inhibition was found to be 9.37%.

Regarding `Cn1cnc(S(=O)(=O)N2CCCC(C(=O)NCc3ccc(Cl)cc3)C2)c1` (stereo unspecified), the inhibition was -19.2%.

In the case of `Cc1ccccc1Nc1c(-c2cccc(Cl)c2)nc2ncccn12`, the inhibition is -1.08%.

For `CCn1c2ccccc2c2cc(CN3CCN(Cc4cc(OC)c(O)c(OC)c4)CC3)ccc21`, the inhibition is -7.59%.

For `Cn1nnc(NC(=S)NC(=O)c2cc(Cl)ccc2Cl)n1`, the inhibition was active: 30.6%.

Turning to `Cc1ccc(C)c(NC(=O)Cn2nc(C)c3nn(-c4ccc(Cl)cc4)c(C)c3c2=O)c1`, the inhibition turned out to be 21.7%.

In the case of `Cc1ccc(NC(=O)c2sc3ncn(Cc4cccc(F)c4)c(=O)c3c2C)c(Br)c1`, the inhibition was 8.53%.

For the compound `O=C(Nc1cccc(Cl)c1Cl)c1ccc2c(c1)N(Cc1cccc(Cl)c1)C(=O)c1ccccc1S2=O` (stereo unspecified), the inhibition turned out to be 13%.

Regarding `COc1cc2[nH]c(=O)n(Cc3ccc(C(=O)N4CCN(c5ccc(Cl)cc5)CC4)cc3)c(=O)c2cc1OC`, the inhibition is -7.37%.

In the case of `CCOc1ccccc1NC(=O)CCCc1nc(-c2ccccc2Cl)no1`, the inhibition is 7.62%.

Consider `COc1ccc(CNC(=O)CCS(=O)(=O)c2cc(Br)cc3c2N(C(C)=O)C(C)C3)cc1` (stereo unspecified), for which the inhibition was -25.3%.

Take `CCc1cccc(NC(=O)CSc2nncn3c2cc2sccc23)c1`: the inhibition is -5.87%.

In the case of `CCOc1ccc(CCNC(=O)c2cc3c(=O)n(CC)c4ccccc4c3s2)cc1OCC`, the inhibition was -25.9%.

With `CCCc1nnc(NC(=O)c2cc(=O)c3ccccc3o2)s1`, the inhibition worked out at 11.8%.

With `CCOC(=O)N1CCC(N2CCCC(C(=O)c3cccc(OC)c3)C2)CC1` (stereo unspecified), the inhibition is active: 40.1%.

As to `CCOC(=O)c1c(C)n(-c2ccccc2)c2ccc(OC(=O)COc3ccccc3)cc12`, the inhibition was -6.73%.

Take `COc1ccc(N2CCN(C(=O)C3CCCN(C(=O)c4cc5sccc5n4C)C3)CC2)cc1` (stereo unspecified): the inhibition was -4.04%.

As for `COc1ccc(C)cc1NC(=O)c1cc(S(=O)(=O)N2CCOCC2)cn1C`, the inhibition was -15%.

For the compound `O=C(CSc1nc(=O)[nH]c2c1CCCC2)NCc1ccccc1Cl`, the inhibition stood at 0.98%.

On to `CC1=C(C(=O)Nc2cccnc2)C(c2cccc(F)c2)n2nc(SCc3ccccc3F)nc2N1` (stereo unspecified), for which the inhibition is 18.5%.

For `CCNC(=O)c1c(NC(=O)Cc2coc3ccc(CC)cc23)sc2c1CCCC2`, the inhibition is -4.35%.

Take `CC(=C/c1ccccc1)/C=N/NC(=O)c1cc(C)oc1C`: the inhibition is active: 36.9%.

`COc1cccc(C2C(C(=O)Nc3ccc(Cl)cc3)=C(C)Nc3nc4ccccc4n32)c1OC` (stereo unspecified): the inhibition amounted to 3.51%.

Turning to `CC(=O)N1CCCc2cc(S(=O)(=O)N3CCN(c4ccccc4F)CC3)ccc21`, the inhibition was -21.1%.

On to `CC(C)(C)C(=O)OCc1nc(-c2ccc(O)c(O)c2)cs1`, for which the inhibition is active: 93.7%.

For `CCCCNC(=O)c1c(-c2ccccc2)c(-c2ccccc2)nn(C)c1=O`, the inhibition was -21.9%.

For `Cc1ccc2c(c1)N(C(=O)N1CCC(C(=O)NCc3ccccc3C)CC1)CC(C)O2` (stereo unspecified), the inhibition is -18.8%.

Turning to `Cc1nc2sccn2c(=O)c1CCN1CCC(=C(c2ccccc2)c2ccc(F)cc2)CC1`, the inhibition is active: 73.5%.

With `CC1CCCCN1C(=O)NC12CC3CC(CC(C3)C1)C2` (stereo unspecified), the inhibition is active: 33.7%.

Consider `CCNC(=O)c1ccc2c(c1)nc1n2CCCCC1`, for which the inhibition is -22.2%.

As for `Cc1c(CNC2CCCCC2)c(C(=O)O)c(C)n1Cc1ccccc1F`, the inhibition is -2.05%.

As to `Cc1ccccc1OCc1nc2c3cnn(-c4cccc(F)c4)c3ncn2n1`, the inhibition was 0.957%.

Take `O=C(Cn1cc(C(=O)C(F)(F)F)c2ccccc21)N1CCCCCC1`: the inhibition was -0.6%.

Regarding `CC1(C)N=C(SCc2ccc(F)cc2)c2ccccc2N1`, the inhibition worked out at 10.8%.

Consider `O=C(COc1ccc2ccccc2c1)NC1CC(=O)N(c2ccc(F)cc2)C1` (stereo unspecified), for which the inhibition is -11.5%.

As to `Cc1ccccc1CN1c2ccccc2-c2nc(SCC(=O)c3ccccc3)ncc2S1(=O)=O`, the inhibition came out at 3.98%.

For `CC1CCCCN1CCCNC(=O)c1cc(Sc2cccc(Cl)c2)nc2ccccc12` (stereo unspecified), the inhibition was found to be 24.3%.

Regarding `CCOc1ccccc1NC1(c2ccccc2)C(=O)c2ccccc2C1=O`, the inhibition is 8.06%.

For the compound `CCn1c(=O)n(-c2ccc3c(c2)OCO3)c2nc(-c3ccc(C(C)C)cc3)nc(C(N)=O)c21`, the inhibition amounted to 3.49%.

With `O=C(Nc1cccc(Cl)c1)C1CCCN(c2nn3cc(-c4ccc(F)cc4)nc3s2)C1` (stereo unspecified), the inhibition is -3.69%.

For `COc1ccc(OC)c(NC(=O)Cn2c(=O)c3cccn3c3ccccc32)c1`, the inhibition is -26.7%.

As to `CCOc1ccc2c(c1)c(=O)c(C(=O)c1ccc(CC)cc1)cn2CC(=O)Nc1ccccc1OC`, the inhibition came out at 24.4%.

As for `COC(=O)COc1cccc2c(=O)n(CC(=O)N3CCCc4ccccc43)ccc12`, the inhibition was active: 30.9%.

With `Cc1ccc(S(=O)(=O)c2cn(CC(=O)Nc3cccc(Cl)c3)c3ccccc3c2=O)cc1`, the inhibition was -1.96%.

As for `CCOc1ccc(C(=O)Nc2cc(-c3nc4cc(OC)ccc4o3)ccc2C)cc1[N+](=O)[O-]`, the inhibition is 6.32%.

`Cc1ccc(Cl)cc1NC(=O)CSc1nc2ccccc2c2nc(-c3ccccc3)nn12`: the inhibition was 6.97%.

In the case of `CCOC(=O)C1CCN(C(=O)c2nn(-c3ccc(OC)c(Cl)c3)c(=O)c3c2c2ccccc2n3C)CC1`, the inhibition was -14.5%.
